B1: AUAUCGG (DNA:RNA)
RNA: GGGAGACCGGAAUUCAGAUUGUCCAUAUCGGUUAAAUCCCGUCGUAGCCACCA
DNA 1: CAATCTGAATTCCGGTCTCCC
DNA 2: TGGTGGCTACGACGGGATT
B2: GGCACUC (DNA:RNA)
RNA: B1 RNA with A25G, U26G, A27C, U28A, G30U, G31C
DNA 1: CAATCTGAATTCCGGTCTCCC
DNA 2: TGGTGGCTACGACGGGATT
B3: AUCCGAA (DNA:RNA)
RNA: B1 RNA with A27C, U28C, C29G, G30A, G31A
DNA 1: CAATCTGAATTCCGGTCTCCC
DNA 2: TGGTGGCTACGACGGGATT
B4: UAAGCUC (DNA:RNA)
RNA: B1 RNA with A25U, U26A, U28G, G30U, G31C
DNA 1: CAATCTGAATTCCGGTCTCCC
DNA 2: TGGTGGCTACGACGGGATT
B5: ACUAGCG (DNA:RNA)
RNA: B1 RNA with U26C, A27U, U28A, C29G, G30C
DNA 1: CAATCTGAATTCCGGTCTCCC
DNA 2: TGGTGGCTACGACGGGATT
B6: UCCGCGA (DNA:RNA)
RNA: B1 RNA with A25U, U26C, A27C, U28G, G31A
DNA 1: CAATCTGAATTCCGGTCTCCC
DNA 2: TGGTGGCTACGACGGGATT
B7: GGAAGAC (DNA:RNA)
RNA: B1 RNA with A25G, U26G, U28A, C29G, G30A, G31C
DNA 1: CAATCTGAATTCCGGTCTCCC
DNA 2: TGGTGGCTACGACGGGATT
B8: AUACACU (DNA:RNA)
RNA: B1 RNA with U28C, C29A, G30C, G31U
DNA 1: CAATCTGAATTCCGGTCTCCC
DNA 2: TGGTGGCTACGACGGGATT
B9: ACAAAAC (DNA:RNA)
RNA: B1 RNA with U26C, U28A, C29A, G30A, G31C
DNA 1: CAATCTGAATTCCGGTCTCCC
DNA 2: TGGTGGCTACGACGGGATT

Residue numbers refer to the chain shown, from its start. The list shows a part of the results.

This assay concerns the target T1, RBFOX1 RRM RbFoxmut (Fox-RRM*) (Homo sapiens, UniProt Q9NWB1 109-208, R118D;E147R;N151S;E152T).
T1 sequence: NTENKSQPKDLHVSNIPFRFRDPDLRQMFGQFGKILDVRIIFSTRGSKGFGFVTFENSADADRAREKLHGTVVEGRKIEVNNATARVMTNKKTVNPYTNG
Kind of assay: EMSA; HiTS-Eq, 1 nM pool, 10 min; buffer printed only for the single-RNA assays: 10 mM Tris pH 7.5, 150 mM NaCl, 3.4 mM EDTA, 0.001% NP-40, 30 C. Conditions: tags: His6 N-terminal (pET28a); label: 5' 32P. In a few lines:
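A pool of RNA with 7 randomized nucleotides, 5′-radiolabelled and with DNA-annealed flanks, was equilibrated at 1 nM for 10 min in 50 µL with purified RbFox RRM, wild type or mutant, across increasing protein concentrations. Free RNA was separated by 8% native PAGE, excised, reverse-transcribed, barcoded by PCR and sequenced. Relative association constants were obtained from read-count changes of each RNA species versus the control reaction and normalised to the cognate motif.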
(In general: In EMSA bound probe runs differently from free probe, usually more slowly.)
Regarding B1, the binding signal was 0.11 KA relative to UGCAUGU.

For B2, the binding signal is 0.053 KA relative to UGCAUGU. With B3, the binding signal was 0.104 KA relative to UGCAUGU. For the molecule B4, the binding signal is 0.0457 KA relative to UGCAUGU. Turning to B5, the binding signal was 0.12 KA relative to UGCAUGU.

In the case of B6, the binding signal is 0.071 KA relative to UGCAUGU. Take B7: the binding signal was 0.0498 KA relative to UGCAUGU.

For B8, the binding signal was 0.0951 KA relative to UGCAUGU. The same measure for B9: 0.101 KA relative to UGCAUGU.

These data come from PMC9911399, “Two distinct binding modes provide the RNA-binding protein RbFox with extraordinary sequence specificity”.
